Screen size: about 310,000 compounds; about 14,000 (4.5%) showed an effect of 50% or more. Effects have a minus sign here. This is one part of the list.
target: human ether-à-go-go-related gene (hERG) potassium channel (human, UniProt Q12809); assay: primary screen, population patch clamp on CHO cells stably expressing hERG
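Further: peak tail current of the secondary pulse compared with the same well before compound.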

Sequence of human ether-à-go-go-related gene (hERG) potassium channel (Q12809 whole entry, looked up): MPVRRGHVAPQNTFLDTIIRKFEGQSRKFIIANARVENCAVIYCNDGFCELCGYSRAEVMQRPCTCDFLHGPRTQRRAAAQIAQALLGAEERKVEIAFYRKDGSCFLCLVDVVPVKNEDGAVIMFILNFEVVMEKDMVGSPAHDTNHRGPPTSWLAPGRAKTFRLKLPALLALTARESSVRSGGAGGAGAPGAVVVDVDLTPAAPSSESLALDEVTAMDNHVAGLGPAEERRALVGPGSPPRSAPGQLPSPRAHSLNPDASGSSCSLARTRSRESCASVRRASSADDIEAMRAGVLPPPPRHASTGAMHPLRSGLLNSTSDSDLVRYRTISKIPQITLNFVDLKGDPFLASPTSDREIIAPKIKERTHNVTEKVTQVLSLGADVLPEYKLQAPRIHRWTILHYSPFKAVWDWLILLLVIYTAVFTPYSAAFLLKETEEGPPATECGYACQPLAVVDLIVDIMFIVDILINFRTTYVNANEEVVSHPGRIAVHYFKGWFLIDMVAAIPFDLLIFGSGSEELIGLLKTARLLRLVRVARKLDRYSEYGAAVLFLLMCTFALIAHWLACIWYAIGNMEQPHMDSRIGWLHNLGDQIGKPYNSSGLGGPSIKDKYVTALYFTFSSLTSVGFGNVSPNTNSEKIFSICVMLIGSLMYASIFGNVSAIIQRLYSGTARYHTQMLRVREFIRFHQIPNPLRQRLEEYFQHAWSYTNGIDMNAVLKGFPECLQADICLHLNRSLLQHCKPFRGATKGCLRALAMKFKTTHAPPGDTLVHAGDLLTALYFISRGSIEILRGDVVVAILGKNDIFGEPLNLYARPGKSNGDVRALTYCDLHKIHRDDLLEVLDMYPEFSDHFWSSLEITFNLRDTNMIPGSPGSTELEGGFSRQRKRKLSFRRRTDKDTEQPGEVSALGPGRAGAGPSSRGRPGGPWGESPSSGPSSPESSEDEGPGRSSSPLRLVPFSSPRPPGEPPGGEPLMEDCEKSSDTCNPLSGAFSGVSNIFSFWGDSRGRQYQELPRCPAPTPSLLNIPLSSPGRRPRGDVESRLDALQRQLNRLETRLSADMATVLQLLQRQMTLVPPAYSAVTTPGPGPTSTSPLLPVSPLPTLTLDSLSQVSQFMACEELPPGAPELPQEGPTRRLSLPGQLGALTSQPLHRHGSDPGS

| Compound | hERG current change (%, negative = inhibition) at 10uM [%] |
| --- | --- |
| CC1CCC(C(C)C)C(OC(=O)Cn2c(-c3ccc(Br)cc3)[n+](C)c3ccccc32)C1.[Cl-] (stereo not shown) | -78.3 |
| C#CCOc1ccc(OC)cc1C(c1c(C)[nH][nH]c1=O)c1c(C)[nH][nH]c1=O | 12.2 |
| COc1ccc(CNC(=O)C(C)OC(=O)CO/N=C(\C)c2ccc3c(c2)OCO3)cc1 (stereo not shown) | -14.1 |
| O=C(NC1(O)C(=O)c2ccccc2C1=O)c1ccc(C(F)(F)F)cc1 | 11.7 |
| CCCn1c(C)cc(C(=O)COC(=O)c2ccc[nH]c2=O)c1C | 15 |
| COc1ccc(NC(=O)CC2C(=O)N(Cc3ccccc3)C(=S)N2CCN2CCOCC2)cc1 (stereo not shown) | -36.5 |
| CC(C)[C@H](NC(=O)C1CCN(S(=O)(=O)c2ccc(F)cc2)CC1)C(=O)NCc1ccncc1 | 14.2 |
| O=C(/C=C/c1ccccc1)NC(=S)NNC(=O)c1ccco1 | 23.7 |
| CCN(C(=O)COC(=O)c1cc2ccccc2cc1O)C1CCS(=O)(=O)C1 (stereo not shown) | -8.53 |
| COc1ccc(COC(=O)Nc2cn(C)nc2C(F)(F)F)cc1 | -7.76 |
| CC(C(=O)NC1=NCCS1)N1C(=O)C2CC=CCC2C1=O (stereo not shown) | 18.7 |
| Cn1c(SCc2ccon2)nc2ccccc2c1=O | -5.87 |
| COc1ccc(CCN(C)Cc2ccc(OCc3ccccc3)c(OC)c2)cc1OC | -74.3 |
| CC(=O)c1cccc(NC(=O)C2COc3ccccc3O2)c1 (stereo not shown) | -0.556 |
| CCC(C)[C@H]1CN=C(N)N1CCc1cccc2ccccc12 (stereo partly shown) | -16.6 |
| CC1=CC(=C2C(=O)c3ccccc3C2=O)C=C(C)O1 | 0.136 |
| COc1ccc(NCc2nnc(SCCN3CCCCC3)n2-c2ccc(C)cc2)cc1 | -66.7 |
| CC1CCCC(NC(=O)CSc2nnc(C(F)(F)F)n2C)C1C (stereo not shown) | 10.7 |
| Cc1cccc(N2C(=O)c3ccccc3C2=O)n1 | 18.1 |
| COc1cccc(OCCCOc2ccc([N+](=O)[O-])cc2Cl)c1 | 4.29 |
| O=C(NC(Oc1ccccc1)C(Cl)(Cl)Cl)c1ccccc1 (stereo not shown) | 16.6 |
| CC(=O)Nc1cc(S(=O)(=O)C(F)(F)F)ccc1Cl | 2.32 |

| Compound | hERG current change (%, negative = inhibition) at 10uM [%] |
| --- | --- |
| Cc1nonc1OCC(C)(COc1nonc1C)NC(=O)c1ccccc1 | -6.59 |
| CC(C)c1ccc(NC(=O)C[n+]2ccn(C3=C([O-])c4ccccc4C3=O)c2)cc1 | 29.1 |
| Cc1cc(N2CCOCC2)nc(N2CCOCC2)n1 | 6.64 |
| CN(C)C(=O)Cn1cc(S(=O)(=O)Cc2ccccc2)c2ccccc21 | 7.58 |
| O=C(c1ccccc1-c1nc(-c2ccc(F)cc2)no1)N1CCCC1 | -30.8 |
| CCOC(=O)c1cc2c(nc1N)CC(C)(CC)OC2 (stereo not shown) | 7.05 |
| CCCS(=O)(=O)N1CCC(C(=O)N2CCN(Cc3ccccc3)CC2)CC1 | -3.37 |
| COc1cccc(CN2C(=O)[C@H]3Cc4c([nH]c5ccccc45)C(C)(C)N3C2=O)c1 | 4.46 |
| Cc1nn(S(=O)(=O)c2ccc(Cl)cc2)c(C)c1Sc1ccc([N+](=O)[O-])cc1 | 2.75 |
| O=C(C[n+]1ccc(-c2cc(C(=O)Nc3cccc(C(F)(F)F)c3)c3ccccc3n2)cc1)c1cccc([N+](=O)[O-])c1.[Br-] | 6.74 |
| Cc1ccc(OCc2cc(C(=O)NCC(C)(C)N3CCOCC3)no2)cc1C | -45.8 |
| O=C(NCc1nnc(SCc2ccccc2)n1-c1ccc(F)cc1)C12CC3CC(CC(C3)C1)C2 | 3.29 |
| O=C(c1ccc(Br)cc1)c1cc2ccc(O)cc2oc1=O | 2.42 |
| COc1ccc(-c2nc(C#N)c(N3CCc4ccccc4C3)o2)cc1OC | -9.26 |
| Cc1ccc(C)c(NC(=O)CCOc2ccccc2)c1 | 14.5 |
| CCc1n[nH]c(CCN)n1.Cl | 12.1 |
| CCOc1ccccc1C(=O)N1CCN(c2cccc(Cl)c2)CC1 | -12.5 |
| CC(C)(C)C(=O)/C=c1\[nH]c(=O)/c(=C\c2ccc(C#N)cc2)s1 | 7.64 |
| Cc1nc(CCNC(=O)CC2C(=O)NCCN2Cc2ccccc2)sc1C (stereo not shown) | 5.67 |
| Cc1ccc(OCc2cc(C(=O)N(C)Cc3nccn3C)no2)cc1C | -15.2 |
| O=C(C1=C(O)C(=O)N(Cc2ccco2)C1c1cccc(Cl)c1)c1ccco1 (stereo not shown) | -8.62 |
| O=C1CCc2cc(NS(=O)(=O)c3ccc(F)cc3)cc3c2N1CCC3 | -2.17 |

| Compound | hERG current change (%, negative = inhibition) at 10uM [%] |
| --- | --- |
| CCOCCc1nn2c(=O)cc(CSCC(=O)Nc3ccc(OC)cc3)nc2s1 | 12.7 |
| O=c1c2c(nc3cc(-c4ccccc4)[nH]n13)CCC2 | 3.04 |
| CCOc1ccc(NC(=O)N(CC(C)C)CC(C)C)cc1 | 0.467 |
| COc1ccc(N(CC(=O)Nc2cc([N+](=O)[O-])ccc2C)S(C)(=O)=O)cc1OC | -2.94 |
| CCCCSc1nnc2c(n1)OC=Nc1ccccc1-2 | -12.6 |
| Cc1cccc([C@@H]2[C@@H]3C(=O)N(Cc4ccccc4)C(=O)[C@@H]3[C@]3(Cc4ccc(Cl)cc4)C(=O)N(c4cccc(Br)c4)C(=O)N23)c1 | 14.6 |
| COc1ccc(CC(=O)NC2CCSc3ccccc32)c(OC)c1 (stereo not shown) | 12.2 |
| CCN(CC)C(=O)c1c[nH]c2ccc(S(=O)(=O)Nc3cc(C)cc(C)c3)cc2c1=O | -0.741 |
| C=CCOc1c(Br)cc(CNCCCN2CCOCC2)cc1OC.Cl | 0.712 |
| Cc1cc(NC(=O)CN2CCN(C)CC2)no1 | 24.6 |
| Cc1cc(CN(C)C(=O)c2cc(COc3ccc(C)c(C)c3)on2)on1 | 15.9 |
| CCCCOC(=O)C1=C(C)Nc2ncnn2C1c1cccc(OC)c1OC (stereo not shown) | -4.86 |
| CCCCc1c(O)nc(SCC(=O)N2CCOCC2)[nH]c1=O | 9.57 |
| Cc1nccn1CCc1nc(N)nc(N)n1 | 9.49 |
| COCCNc1nnc(SCC(=O)Nc2nnc(-c3ccccc3)o2)s1 | 21.8 |
| c1ccc(Cc2nnc3sc(-c4cccnc4)nn23)cc1 | -47.1 |
| Cc1ccc(N=Nc2c(N)[nH]n3c(=O)cc(C)nc23)cc1 | -29.3 |
| Cc1ccc(OCC(=O)Nc2ccc3oc(=O)ccc3c2)cc1 | 7.52 |
| Cc1ccc(CN2CCC(CNS(=O)(=O)c3ccc(-c4ccc(=O)[nH]n4)s3)CC2)cc1 | -60.6 |
| Cn1nc(C(=O)Nc2cccc(S(N)(=O)=O)c2)c2ccccc2c1=O | 11.4 |
| COc1ccc(NC(=O)N2c3ccccc3C(C)=CC2(C)C)cc1 | 12.1 |
| COc1cc(C(=O)NCCc2c[nH]c3ccccc23)ccc1OCc1c(C)noc1C | -16.6 |

| Compound | hERG current change (%, negative = inhibition) at 10uM [%] |
| --- | --- |
| CCCOc1cccc(C(=O)Nc2cccc3ncccc23)c1 | 2.82 |
| COc1ccccc1CCCNC(=O)C1CCC(=O)N(CCc2ccc(Cl)cc2)C1 (stereo not shown) | -60.5 |
| O=C1c2ccccc2NC(c2ccc3c(c2)OCCO3)N1c1ccc2c(c1)OCCO2 (stereo not shown) | 10.9 |
| Nc1nc(SCC(=O)N2N=C3/C(=C/c4ccco4)CCCC3C2c2ccco2)n[nH]1 (stereo not shown) | -10.8 |
| COc1ccc(C(=O)/C=C/c2ccc(OC)c(COc3ccccc3F)c2)cc1 | 9.24 |
| CC1=NN(c2ccccc2)C(=O)C1C(=O)c1ccc(Cl)cc1 (stereo not shown) | 7.39 |
| O=C(Cc1cccc2ccccc12)Nc1ccc2c(c1)C(=O)NC2=O | 9.52 |
| Cc1cc(Nc2cccc(C(F)(F)F)c2)n2nc(C)nc2n1 | -51.8 |
| COC(=O)c1c(NC(=O)C2c3ccccc3Oc3ccccc32)sc(C)c1C | 15.7 |
| CCc1cccc(C)c1NC(=O)CO/N=C(\N)CC(=O)NC1CCCCC1 | 9.62 |
| CCOC(=O)/C=C/C(=O)Nc1ccccc1-c1ccccc1NC(=O)/C=C/C(=O)OCC | 2.65 |
| C=CCOc1ccc(Oc2cc(C)nc(SC)n2)nn1 | 12 |
| O=C(O)CN1CCc2ccccc2C1 | 21.3 |
| Cc1ccc(CNC(=O)Nc2ccccc2)cc1 | 1.41 |
| O=C(N/N=C/c1c[nH]c2ccccc12)c1cccs1 | 4.97 |
| CN1CCN(c2nnc(-c3ccc(Cl)cc3)c3ccccc23)CC1 | -45.7 |
| CCC(=O)Nc1cc(C)c(NC(=O)CCc2ccccc2)cn1 | 2.73 |
| CN(C)S(=O)(=O)c1ccc2c(c1)C(=O)c1cc(S(=O)(=O)N(C)C)ccc1CC2 | 7.08 |
| Cc1cc(N/C=C/C(=O)c2cccs2)ccc1F | 22.5 |
| O=C(c1ccc(COc2ccccc2Cl)o1)N1N=C(C(F)F)CC1(O)C(F)F (stereo not shown) | 17.1 |
| COc1cc2c(cc1OC)C(C)N(C(=O)c1cccc([N+](=O)[O-])c1)CC2 (stereo not shown) | -5.85 |
| O=C(OC(C(=O)NC1CCCC1)c1ccc(F)cc1)c1ccno1 (stereo not shown) | -2.83 |
